Data: ChEMBL document CHEMBL4888484, “Replenishing the malaria drug discovery pipeline: Screening and hit evaluation of the MMV Hit Generation Library 1 (HGL1) against asexual blood stage Plasmodium falciparum ,using a nano luciferase reporter read-out” (2022)
Out of some 150,000 compounds screened, about 540 (0.36%) showed an effect of 50% or more. Some of the results follow.

system: Plasmodium falciparum; assay: Primary screen in NF54 nanoGlo assay, in single point, at 2uM, 72h; a lower Z score goes with more inhibition; assay type: functional, Erythrocyte; conditions: timepoint 72 hour

Compound	% Inhibition [%]	Z score
Cc1noc([C@]2(F)CCCN(S(=O)(=O)c3cc(F)ccc3C)C2)n1	9	-1.34
CN(C(=O)c1ccco1)[C@@H](Cc1ccccc1Cl)C1CCN(Cc2cnn(C)c2)CC1	-11	1.56
O=c1[nH]c2scc(-c3ccccc3)c2c(=O)n1-c1ccccc1F	-10	1.78
COc1ccc(OC2CCN(C(C)=O)CC2)c(C(=O)N2CCCC[C@@H]2CCO)c1	-7	1.04
FC(F)(F)c1n[nH]c(CNc2cncc(-c3cccs3)n2)n1	-6	1.14
CC(c1ccccc1F)N1CCCC(NC(=O)c2c(C3CCC3)cnn2C)C1=O (stereo not drawn)	24	-3.06
NC(=O)c1sccc1-c1cccc(C(=O)N[C@H]2CC[C@H](O)CC2)c1	-1	0.26
Cc1csc2c(N3C[C@@H](C(F)(F)F)[C@H](C(=O)O)C3)ncnc12	-8	0.76
c1ccc(-n2ncnc2[C@@H]2COCCN2CCc2ccns2)cc1	6	-1.07
CC(C)c1noc(CN2CCC(N3CCC[C@H](C(=O)NC4CC4)C3)CC2)n1	-6	0.97
c1c([C@H]2CCOC2)nnn1Cc1n[nH]c2c1CCCCC2	-11	1.91
CCS(=O)(=O)c1ccccc1C(=O)N1CCC(C(=O)c2ccc3c(c2)NC(=O)CO3)CC1	-14	1.76
O=C(Nc1ccc(Oc2cccc3[nH]ccc23)nc1)c1ccccc1	-13	1.48
COc1cccc(CNC(=O)[C@H]2CC(=O)N(c3ccc4oc(C)nc4c3)C2)c1	-3	0.6
Cc1ccc(CN(CCN2CCCC2)Cc2ccc(C)o2)o1	32	-0.37
CC(C)(C#N)c1ccccc1CN1CCn2c(n[nH]c2=O)C1	-10	1.32
CCC(CC)Nc1cccc(NC(=O)CO)c1	3	-0.47
O=C(N[C@H]1CC(=O)N(CC(F)(F)F)C1)c1ncc2ccccc2c1O	-7	1.29
O=C(NCCN1CCCOCC1)NC1CCC(Cc2ccccc2)C1 (stereo not drawn)	1	-0.16
CCn1nc(CNC[C@H](C)O)c(-c2ccccc2)n1	45	-5.11
O=S(=O)(NC1=NCCC1)c1ccc(NS(=O)(=O)c2cccc(C(F)(F)F)c2)cc1	6	-0.95

Compound	% Inhibition [%]	Z score
Cn1c(COc2ccc3c(c2)OCO3)cc(=O)n(C)c1=O	-12	1.87
COc1ncc(CN2CCCN(Cc3ccc(F)cc3)[C@H](C(C)C)C2)cn1	-9	1.02
CN(C[C@@H]1CCCO1)C(=O)c1ccc(OCC(F)(F)F)nc1	-9	1.22
CCc1nn(C)c(Cl)c1CN1CCO[C@H]2CCCC[C@@H]21	-12	1.15
CCOc1cccc2c1OC1(C)C(C(=O)Nc3ccc(C)cc3C)C2NC(=O)N1c1ccccc1C (stereo not drawn)	-2	0.17
O=C(c1cn2c(n1)CCCC2)N1CCN(c2nc[nH]n2)CC1	-7	0.95
COc1ccc([C@H]2NS(=O)(=O)NC2=N)cc1	1	-0.26
CC(C)Oc1ccccc1CN1CCC(CN2C[C@@H](C(=O)NC3CC3)CC2=O)CC1	2	-0.22
Cc1c(C(=O)N2CCO[C@H](c3ccccc3)C2)cnn1-c1ccncc1	-4	0.31
COc1cc2c(cc1OC)[C@@H](NC(=O)c1[nH]nc3c1CCC3)CC2	-5	0.69
O=C(NC1(CN2CCOCC2)CCCC1)c1cccc(-c2cc(O)ncn2)c1	7	-0.88
C[C@@H](Cn1cnc2c1CCCC2)C(=O)O	-7	1.24
COc1ccccc1N1CCN(C(=O)c2nn[nH]c2Nc2ccccc2F)CC1	-1	0.19
CN(CC1(N(C)C)CCC1)C(=O)c1cn(C)nc1C1CC1	-1	0.2
O=C(NCN1CCOCC1)c1ccccc1Cl	9	-1.04
CCc1c(C(=O)N2CC(CO)OCC2C)cnn1CC(C)C (stereo not drawn)	-4	0.36
O=S(=O)(NC1(c2ccc(Br)cc2)CCC1)c1ccccc1	0	0.04
COc1ccc(C(C)(C)C)cc1CNc1nc(C)cc(=O)[nH]1	6	-0.8
Cc1ccc(-n2nc(C)cc2NC(=O)CCc2ccc(C)o2)nn1	-30	3.57
COc1ccc(C(=O)N2CCN(c3nc(Cc4ccc(C)cc4)nc4c3c(C)nn4-c3ccccc3)CC2)cc1	3	-0.6
Cc1ccc(-c2nc3c(=O)[nH]cnc3o2)cc1	-14	2.6

Compound	% Inhibition [%]	Z score
CC(=O)Nc1cc(-c2nc(-c3ccc4c(c3)nc(C)c(=O)n4C3CCCC3)no2)ccc1C	-12	1.16
Cc1nn(C)c(C)c1NC(=O)CN(C1CCCC1)C1CC1	-6	1.15
CO[C@@H](CNC(=O)C1CCC1)c1ccco1	17	-2.22
COCCOc1ccc(CNC(=O)c2cc3cccc(F)c3o2)cn1	-11	2.15
Cc1ccc(S(=O)(=O)N2CCC[C@H](n3cnc4ccccc4c3=O)C2)cc1Cl	-7	1.11
COc1cccc(CN2CCC[C@@]3(CCN(C(=O)c4cccc(C)n4)C3)C2)c1OC	-4	0.61
CCc1[nH]nc(-c2ccccc2)c1NC(=O)c1ccccc1OC	-11	1.04
CCOc1cc2c(C#N)c(OCC)nc3c2c(n1)NC1(CCCCC1)N3	4	-0.58
CCc1ccnc(C(=O)Nc2ncncc2C(C)C)c1	-4	0.73
CC(C)Cn1nccc1C(=O)Nc1cncc(C(C)C)c1	-1	0.15
CCc1csc(-c2c(CC)c(CC)n[nH]c2=O)n1	0	-0.04
NCc1ccc(-c2noc(C3CC4CCCCC(C3)C4=O)n2)c(F)c1 (stereo not drawn)	0	-0.01
CC(=O)NCCc1cn(-c2ccc3c(c2)OC(F)(F)O3)cn1	-2	0.4
O=C(c1ccccc1)N1CCC[C@@H]1CCc1noc(C2CC2)n1	-1	0.1
O=C(c1cc[nH]c1C1CC1)N1CCN[C@H](c2cccc(Cl)c2)C1	-6	0.77
CC1CC1c1ccc(CN(C)S(=O)(=O)N(C)C(C)C)o1 (stereo not drawn)	-9	1.13
CCCc1c(-c2ccccc2)nc(N2CCN(C(c3ccccc3)c3ccccc3)CC2)[nH]c1=O	-11	1.61
Cn1ccnc1-c1nccn1C[C@H](O)c1cccnc1	-5	0.78
O=C(Cn1ncc2c([nH]c3ccccc32)c1=O)NCc1ccc2c(c1)OCO2	-1	0.22
COCCC(NC(=O)C(C)OC)c1ccc(Cl)cc1 (stereo not drawn)	33	-3.77
Cc1ncc(-c2nc(C3CC3)no2)s1	-3	0.49

Compound	% Inhibition [%]	Z score
Cc1nc(C)n(CCCNC(=O)[C@@H](c2ccc(F)cc2)N2CCCCC2)n1	-6	0.71
CCCNC(=O)COc1c(C)[nH]c2ccccc2c1=O	-11	1.33
O=C(CCCc1ncc(-c2ccccc2)o1)N[C@H]1CCS(=O)(=O)C1	-17	1.57
COCCN(CC(=O)N(Cc1ccc(C)cc1)C1CCN(C(=O)c2ccc(F)cc2)CC1)S(=O)(=O)c1ccccc1	2	-0.3
CCn1cc(C(=O)N(Cc2ccccc2)CC2(O)CCCC2)cn1	-3	0.54
Cc1ccc(-n2cccc2CC(=O)NCCN(C)C)cc1	-10	1.46
CC(C)N1CCN(C(=O)[C@@H]2C[C@H](Oc3ccccc3)CN2C2CCOCC2)CC1	-7	0.9
C#CC(C)(CC)NC(=O)C1CCCCC(=O)N1 (stereo not drawn)	-9	0.97
O[C@@]1(C(F)(F)F)CCN(Cc2cccnc2)C1	-1	0.16
Cc1cccc(NC(=O)C2[C@@H]3C=C[C@]4(O3)C(C(=O)NC3CCCCC3C)N(C3CCC(C)CC3)C(=O)[C@H]24)c1 (stereo partly drawn)	-12	1.89
O=C(c1cc(N2CCNC2=O)ccc1Cl)N1CCNCC1	-3	0.37
CC(=O)NCc1ccc(C(=O)NC(C2CC2)C2CC2)s1	0	-0.07
COc1ccccc1CN1CCN2C(=O)N(C3CCOCC3)C[C@H]2C1	10	-1.17
CC(C)n1ccnc1Cn1nc(C(F)(F)F)ccc1=O	-12	1.87
C[C@H](NC(=O)N[C@H]1CCCC[C@H]1CC(F)(F)F)c1cccnc1	-1	0.18
O=C1NC[C@@H]2CCC[C@@H](CCOc3ccccc3C(=O)N3CCN(C4COC4)C[C@@H]13)O2	-9	1.37
COc1cccc(CN2C[C@@H](O)C[C@H]2c2nnc3n2CCN(C(=O)C(C)C)C3)c1OC	5	-0.78
CC1CCC(C(N)=O)C(C)N1C(=O)C(F)F (stereo not drawn)	-3	0.64
CC1(C)NC(=O)N(CC(=O)N[C@@H](Cc2ccccc2)c2ccccc2)C1=O	-2	0.33
Cc1cc(C)nc(NCCC(=O)N2CCc3ccccc3C2)n1	-20	2.82
CCc1ccc(C(=O)N2CCN(C(=O)c3nnn4c3CO[C@H](c3ccc(Cl)cc3)C4)CC2)cc1	-30	2.76
